This note sets out measurements from article PMC7819943, “Rice protein-binding microarrays: a tool to detect cis-acting elements near promoter regions in rice”.

Some of the results follow.

In this test the target is T1, OsWOX13 (Oryza sativa, UniProt Q5QMM3 1-267).
T1 sequence: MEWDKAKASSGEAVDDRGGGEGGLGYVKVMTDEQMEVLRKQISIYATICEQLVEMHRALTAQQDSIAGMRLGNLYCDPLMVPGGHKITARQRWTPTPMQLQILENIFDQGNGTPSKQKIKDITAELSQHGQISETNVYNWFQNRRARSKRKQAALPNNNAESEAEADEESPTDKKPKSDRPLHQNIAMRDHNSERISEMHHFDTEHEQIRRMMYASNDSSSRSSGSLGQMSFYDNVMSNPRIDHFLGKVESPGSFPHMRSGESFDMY
Put plainly: protein-binding microarray (RPBM); PBS, 2% BSA, 51.3 ng/ul salmon testes DNA, 50 uM zinc acetate, 200 nM TF, 25 C, 1 h; high values mean tight binding. The note with it: protein: recombinant; tags: N-terminal polyhistidine and DsRed monomer fusion (pET32a); label: CyDye5-dUTP incorporated in the synthesized complementary strand; 3' TTTTT single-stranded linker to array surface; dsDNA, one strand shown. In short, it runs like this:
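The binding signal for each feature is its fluorescence intensity in arbitrary units. An Axon 4000B scanner was used to read a custom Agilent array that had been made double-stranded with Cy5-dUTP primer extension, blocked with 2% BSA, incubated at 25 °C for 1 h with 200 nM protein in PBS, 2% BSA, salmon testes DNA and 50 µM zinc acetate, and washed. The protein was an N-terminal polyhistidine–DsRed transcription factor fusion from E. coli BL21-CodonPlus, purified on Ni–NTA.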
Consider “GTGATTGGGCTTCAGCTCCACCAAGCGGCTGGCCCCATCTCGGAGTCACCTAGTGCAG”, for which the binding signal is 7830 fluorescence intensity (a.u.).

Regarding “ACTGATTTATATGGCTTCTTCATCTTTGTTGTAGTCCCGACGGAGTCACCTAGTGCAG”, the binding signal was 41200 fluorescence intensity (a.u.).

Take “CAACCATCAAGGCATCAATTAAACTAAACGAAGGTACACGCGGAGTCACCTAGTGCAG”: the binding signal is 5960 fluorescence intensity (a.u.).

“AAGTTATTAGCATATGATTAATCGAATATGAATTATTGTACGGAGTCACCTAGTGCAG”: the binding signal is 3900 fluorescence intensity (a.u.).

Regarding “TCAAGATTGCTAACTAGATGTCATGGCGTGCTGGAGATAACGGAGTCACCTAGTGCAG”, the binding signal was 4250 fluorescence intensity (a.u.).

Consider “TTTTGAAATTTCAGATTATTTTGTGTGGTTTTGTAATTTGCGGAGTCACCTAGTGCAG”, for which the binding signal was 4570 fluorescence intensity (a.u.).

Regarding “GCTTATAGATTGTAATAATCCATCATAATAAACTATCTATCGGAGTCACCTAGTGCAG”, the binding signal was 16300 fluorescence intensity (a.u.).

As to “AATAAATAAATCACTTTACCTGGAGTAATGATGATATTTTCGGAGTCACCTAGTGCAG”, the binding signal is 4430 fluorescence intensity (a.u.).

Consider “CTTTTAGATTTGACATTTACAATTTTACCACTGATATACGCGGAGTCACCTAGTGCAG”, for which the binding signal is 23500 fluorescence intensity (a.u.).

In the case of “CTTTGTAATTTTATTGGCATCCATTCAGTTGATAAAGACCCGGAGTCACCTAGTGCAG”, the binding signal is 3620 fluorescence intensity (a.u.).

Consider “CCAAATTACACGGTTTTGTATAGTTTAGGGCCGAAGGTTTCGGAGTCACCTAGTGCAG”, for which the binding signal was 4330 fluorescence intensity (a.u.).

As to “GTTTAAAGGGGATTGAAGAGGATTGGCGTGGAATAAATCCCGGAGTCACCTAGTGCAG”, the binding signal is 11300 fluorescence intensity (a.u.).

On to “TGGTTGCAAATTGATTTGGTTATTTAGTATAAACATCCTCCGGAGTCACCTAGTGCAG”, for which the binding signal was 40100 fluorescence intensity (a.u.).

Turning to “TTGGACAGAACTGGTGATTGTTCAAGCTTCAAATTTGAAACGGAGTCACCTAGTGCAG”, the binding signal is 7190 fluorescence intensity (a.u.).

For “ACTCCGAAATAATATTAAATTAGAAATCTAATGATCTAGACGGAGTCACCTAGTGCAG”, the binding signal is 3490 fluorescence intensity (a.u.).

Turning to “GGTTGGGAATGGCTGGCGGTTAATTCAATTTGCTGCTGACCGGAGTCACCTAGTGCAG”, the binding signal was 3730 fluorescence intensity (a.u.).

Consider “TGCTAATAAATCTTGATTTGTTTCACATAGAAGCTGCATCCGGAGTCACCTAGTGCAG”, for which the binding signal was 26400 fluorescence intensity (a.u.).

Take “GTGTTAGAGAAGTATTAATTGGCAAGAGTAAAACATGTTACGGAGTCACCTAGTGCAG”: the binding signal was 6520 fluorescence intensity (a.u.).

Turning to “CAAAGGTTTTAATTAATCTCGTATTGGGTTCTTATATGGACGGAGTCACCTAGTGCAG”, the binding signal is 3700 fluorescence intensity (a.u.).

On to “AGAAAATTTCCCAATTAATGGCATTGTTGGCTACTTATTACGGAGTCACCTAGTGCAG”, for which the binding signal is 18800 fluorescence intensity (a.u.).

As to “TTGCAAATTGCAAACAGGCGATGGCTGATCTGATGCATCTCGGAGTCACCTAGTGCAG”, the binding signal was 10900 fluorescence intensity (a.u.).

Consider “TGACATTCGTAATTATACTCCAATATAATATTATCCATATCGGAGTCACCTAGTGCAG”, for which the binding signal is 4040 fluorescence intensity (a.u.).

Consider “CTTGAACTTGATTGTGCCCGTACAGGAACGGAACAGCAAGCGGAGTCACCTAGTGCAG”, for which the binding signal is 13300 fluorescence intensity (a.u.).

As to “TAGTGACGGATAGATTACACACAATTAAAAGATGCCATTACGGAGTCACCTAGTGCAG”, the binding signal was 9930 fluorescence intensity (a.u.).

As to “TTTAATTTGGCCTACTTAATTCTCGTCTACAAATTGAGCCCGGAGTCACCTAGTGCAG”, the binding signal was 12400 fluorescence intensity (a.u.).

Take “CTAAACTTGGTTAAATTTCCATCAGGAAATCAAACTCTACCGGAGTCACCTAGTGCAG”: the binding signal is 11000 fluorescence intensity (a.u.).

Turning to “CTCTAAATTTGTGCAGATGTGTCACCTAGATCCCTGAACTCGGAGTCACCTAGTGCAG”, the binding signal is 11700 fluorescence intensity (a.u.).

With “TGCTGACGTGACAGGACAACGCTGCCATAGCTAAAAGGTTCGGAGTCACCTAGTGCAG”, the binding signal was 5000 fluorescence intensity (a.u.).

As to “GGAGGAGCTAATCAAATCAAGTCAAATCGAATCAAATCAACGGAGTCACCTAGTGCAG”, the binding signal was 4610 fluorescence intensity (a.u.).

Regarding “GTGTATTACACGGAGGAAATTGACAGGTGTGGAAATTGAGCGGAGTCACCTAGTGCAG”, the binding signal is 14500 fluorescence intensity (a.u.).

As to “TCTTGACGGGGAGTTACCATTGAATATATTTTGATAATATCGGAGTCACCTAGTGCAG”, the binding signal is 4170 fluorescence intensity (a.u.).

Regarding “TTGTGATTGGTTAAGATAAATAAATTGTTGTAGATATTCTCGGAGTCACCTAGTGCAG”, the binding signal is 48800 fluorescence intensity (a.u.).

As for “CATTCATATTGATATTAATGAGATAACCCGTTAATGAGATCGGAGTCACCTAGTGCAG”, the binding signal was 4620 fluorescence intensity (a.u.).

Consider “CCGCAATTAAACGCCATCTCGATCGAAAGCTAGACTAACCCGGAGTCACCTAGTGCAG”, for which the binding signal was 3250 fluorescence intensity (a.u.).

For “GATATTAACTTGATTAATTCTAGCTGATTAGCTAGCTTGGCGGAGTCACCTAGTGCAG”, the binding signal is 36900 fluorescence intensity (a.u.).

With “CACTTGACTGGCTGATGCTATTGGCCTCTGTTATATTTTCCGGAGTCACCTAGTGCAG”, the binding signal was 19900 fluorescence intensity (a.u.).

For “CATTATTTCACTTGATTAAATTGCTTTAACTTTTATTTAGCGGAGTCACCTAGTGCAG”, the binding signal is 15900 fluorescence intensity (a.u.).

Take “CAAATCAAAATTTATAAACTTTCAAACTCAAAACATGCTACGGAGTCACCTAGTGCAG”: the binding signal is 5240 fluorescence intensity (a.u.).

Regarding “TTATTAATTGTTCTACAATACGCCAATGGGCTGGGCTTTCCGGAGTCACCTAGTGCAG”, the binding signal is 9540 fluorescence intensity (a.u.).

Regarding “CGCGGGATTGTGATTTCTATACCATCCCTGAATGGTACGACGGAGTCACCTAGTGCAG”, the binding signal is 6350 fluorescence intensity (a.u.).

For the sequence “TCTTATTGACATGGCACCATAGACACTGCTTATGGATACTCGGAGTCACCTAGTGCAG”, the binding signal was 11700 fluorescence intensity (a.u.).

On to “ATGATAAATTAAGTAATACGAAAACAGAATCATCATATAGCGGAGTCACCTAGTGCAG”, for which the binding signal was 10200 fluorescence intensity (a.u.).
